# ± gives the standard deviation of the averaged measurements. Whole data set: some 33,000 sequences, median “E-score (dimensionless, -0.5 to 0.5)” near -0.049, cut for the highest 2% near 0.37. Some of the results follow.
# Tested on: T1, PmTbr T-box DNA-binding domain (GST fusion)
# T1 sequence: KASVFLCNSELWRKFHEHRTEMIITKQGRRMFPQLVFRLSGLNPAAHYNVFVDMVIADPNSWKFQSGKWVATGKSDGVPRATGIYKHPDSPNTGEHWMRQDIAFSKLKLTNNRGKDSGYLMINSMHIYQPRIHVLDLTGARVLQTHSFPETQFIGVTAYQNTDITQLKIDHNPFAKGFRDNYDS
# Assay: PBM E-score of 8-mer (E-score (dimensionless, -0.5 to 0.5)); Tbr is Tbrain of the sea star Patiria miniata (Pm) or the sea urchin Strongylocentrotus purpuratus (Sp); higher = stronger binding preference; most listed sequences are background and not binding sites
# Details: the construct has about 5 more residues each side
# How it was run: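 Each ungapped 8-mer received an enrichment E-score from the Universal PBM Analysis Suite, averaged over duplicate arrays. The proteins were Tbr T-box DNA-binding domains, covering the whole T-box plus about five flanking residues, fused to GST and expressed in BL21 E. coli at 20 °C before glutathione affinity purification. Universal Agilent oligonucleotide arrays were made double-stranded by primer extension and incubated with 200 nM protein in PBS (pH 7.5). The arrays were then scanned and quantified, and every 8-mer was scored from probe intensities.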
row,Sequence,PBM E-score of 8-mer
1,AAGGCCTC,-0.105 ± 0.015
2,ACGCTGTC,0.0556 ± 0.0024
3,CTGCACAC,0.215 ± 0.027
4,ACTCAAGA,-0.0123 ± 0.0034
5,CGATTCGA,0.0278 ± 0.056
6,CCGCGCAA,0.00579 ± 0.065
7,ACACTAGT,0.264 ± 0.025
8,AATGCCCC,-0.365 ± 0.05
9,AACCTGTG,0.19 ± 0.043
10,AATTGGGA,-0.0137 ± 0.033
11,TAACGCTA,0.205 ± 0.037
12,ATGGCTTG,-0.216 ± 0.086
13,ATTTACTG,-0.144 ± 0.038
14,AACAATGT,0.0817 ± 0.041
15,CACTCTGG,0.0472 ± 0.035
16,AGCCAATA,-0.262 ± 0.041
17,GAGAAGGC,0.106 ± 0.026
18,AAATAGTC,-0.154 ± 0.016
19,CACTCCCC,-0.022 ± 0.029
20,CCATGGGG,-0.267 ± 0.028
21,GGAATCTA,-0.145 ± 0.004
22,CGAGGTGA,0.4396 ± 0.0012

row,Sequence,PBM E-score of 8-mer
1,GACCGCCA,-0.0701 ± 0.085
2,AACTTGGG,0.0209 ± 0.019
3,CGTGAGTA,0.136 ± 0.02
4,AAGCTCGC,0.0764 ± 0.07
5,CACCACCC,0.163 ± 0.023
6,ATGATCTC,-0.1239 ± 0.00029
7,CAACCGCA,-0.192 ± 0.082
8,CGTACTTA,-0.115 ± 0.042
9,AGCGCTGG,0.0172 ± 0.042
10,AACTTCCA,-0.053 ± 0.039
11,AATCCATT,-0.291 ± 0.033
12,AGGCCGAT,-0.0621 ± 0.043
13,GATGCAGC,-0.297 ± 0.019
14,ATACATCC,0.0559 ± 0.062
15,CAATTTCC,-0.102 ± 0.0074
16,CAACTAGG,-0.0699 ± 0.0064
17,CTCCCTGA,-0.168 ± 0.0082
18,AAGCTAAC,-0.0267 ± 0.025
19,ATATTGAG,-0.113 ± 0.079
20,CCGTCTTC,-0.124 ± 0.0066
21,AATTGCCT,-0.299 ± 0.034
22,AGACCCAT,-0.144 ± 0.12

row,Sequence,PBM E-score of 8-mer
1,ACGGAGAA,0.00365 ± 0.064
2,CACCAAAG,0.172 ± 0.033
3,CTACCTGA,0.00758 ± 0.012
4,ATGAACCC,-0.139 ± 0.029
5,CGGGAGCA,0.0899 ± 0.006
6,CACTTTGC,0.319 ± 0.028
7,GGTGCAGA,0.168 ± 0.019
8,GCAGCAAC,-0.037 ± 0.022
9,TATGTCCA,-0.147 ± 0.024
10,GAGGGGGC,-0.142 ± 0.027
11,ATACGCCC,-0.0628 ± 0.0086
12,CATTACTA,-0.156 ± 0.041
13,AGGTTCTA,-0.161 ± 0.044
14,ATCCACGA,-0.238 ± 0.0079
15,CAAGCAGC,-0.0145 ± 0.0015
16,ATGTTCAG,-0.0702 ± 0.026
17,ACAAGAGT,-0.151 ± 0.0067
18,ATAAGAAG,-0.138 ± 0.045
19,CACTGTAA,0.161 ± 0.0026
20,CTGACACA,0.344 ± 0.013
21,AGCAACAG,0.0636 ± 0.029
22,CGCGTCTA,0.0754 ± 0.046

row,Sequence,PBM E-score of 8-mer
1,GCTCCGGA,-0.18 ± 0.088
2,ACGGTCTA,-0.195 ± 0.054
3,TGCTTACA,-0.0251 ± 0.086
4,ACGTATTG,-0.0903 ± 0.011
5,GCACGGAC,-0.0346 ± 0.022
6,AGACCCCA,-0.236 ± 0.0066
7,ACCGGAGG,0.000975 ± 0.038
8,ACGGATCG,-0.104 ± 0.011
9,ATGAGACG,-0.0507 ± 0.02
10,TGAGCCCA,-0.159 ± 0.019
11,ACAGAGGA,-0.106 ± 0.13
12,AGGATCGG,-0.169 ± 0.079
13,AGACCCGC,0.0457 ± 0.026
14,GATCAGCA,0.11 ± 0.036
15,TAAATCAA,-0.136 ± 0.033
16,CAGTTCGC,0.248 ± 0.008
17,GAAATCAA,0.0832 ± 0.0069
18,AATAAAGC,-0.0059 ± 0.09
19,CATATTGG,0.00571 ± 0.035
20,CGATAGAA,-0.11 ± 0.029

# — the supplement of paper PMC4166925
